# Test results reported in PubChem BioAssay AID588342 (National Center for Advancing Translational Sciences (NCATS), 2011).
# Several values for one entry are separate records, joined by “and”; a condition that tells them apart may be missing. Identical values can stand only once. Screen size: about 360,000 compounds; about 25,000 (6.9%) were called active. Inconclusive means that the source gave no clear call. Such entries were picked first, then a sample of the others. Calls follow the shape of the dose curve; as a rule, active = well fitted inhibition curve with a large enough effect; inconclusive = small, poorly fitted or top-dose-only effect; inactive = flat fitted curve, though single readings scatter. Where the call is inconclusive, the potency comes from a doubtful curve fit. More than one record can exist for a structure, and the calls need not agree.
# Target: Luciferin 4-monooxygenase (Photinus pyralis) (UniProt P08659)
# UniProt P08659, sequence (P08659 whole entry, looked up): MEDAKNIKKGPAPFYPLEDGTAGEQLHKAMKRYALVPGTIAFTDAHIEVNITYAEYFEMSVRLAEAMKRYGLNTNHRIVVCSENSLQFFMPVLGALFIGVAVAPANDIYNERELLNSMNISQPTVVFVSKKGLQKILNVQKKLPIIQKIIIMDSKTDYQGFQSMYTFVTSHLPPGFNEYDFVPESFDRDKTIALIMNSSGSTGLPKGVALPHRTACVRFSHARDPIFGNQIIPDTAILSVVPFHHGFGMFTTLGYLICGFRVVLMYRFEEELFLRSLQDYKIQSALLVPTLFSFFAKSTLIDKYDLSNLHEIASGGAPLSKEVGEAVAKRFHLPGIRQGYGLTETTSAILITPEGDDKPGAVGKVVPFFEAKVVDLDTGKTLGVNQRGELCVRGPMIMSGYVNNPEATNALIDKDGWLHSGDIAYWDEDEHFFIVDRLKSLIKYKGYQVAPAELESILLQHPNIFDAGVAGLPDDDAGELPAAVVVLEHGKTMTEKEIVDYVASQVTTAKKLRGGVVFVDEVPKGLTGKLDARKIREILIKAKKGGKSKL
# Test: qHTS profiling assay for firefly luciferase inhibitor/activator using purifed enzyme and Km concentrations of substrates (counterscreen for miR-21 project); also: nearly all actives have a fitted effect of over 55% in size;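 as to activity change, negative = inhibition: plate controls were vehicle for no effect and reference inhibitor for full effect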
# Conditions: purified FLuc, luminescence inhibition; activity change, negative = inhibition: at 57.5 µM (top of the series)
# Summary of the method: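 Purified P. pyralis luciferase (10nM final) with 10uM D-luciferin and 10uM ATP (Km levels) in 50mM Tris acetate pH 7.5, 10mM Mg acetate, 0.01% Tween-20, 0.05% BSA; qHTS 6-point titration, ~60 µM downward; luminescence read.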
# Potency is read from the fitted curve at half-maximal effect; tags tell the direction and shape of the fitted curve.
SMILES,Potency,"activity change, negative = inhibition"
Cc1ccc(N(Cc2ccccc2)C(=O)c2cccc(S(=O)(=O)N3CC(C)OC(C)C3)c2)cc1 (stereo not drawn),"inconclusive: 15.1 µM [inhibitor, partial curve, poor fit]",
Cc1ccc(NC(=O)Nc2ccc3c(c2)N(C)C(=O)CS3)cc1C,"inconclusive: 33.8 µM [inhibitor, single point]",
CCOc1cc(C(=O)Nc2ccc(-c3nc4ccccc4s3)cc2Cl)cc(OCC)c1OCC,active: 13.5 µM,
COc1ccc(/C=N/Nc2cc(C)nc3c(C)cccc23)cc1,"inconclusive: 21.3 µM [inhibitor, partial curve, poor fit]",
CC(SC#N)C(=O)C12CC3CC(CC(C3)C1)C2 (stereo not drawn),,inactive: -2.06%
O=C(/C=C/c1ccc(OCCCF)cc1)N1CCN(Cc2ccccc2)CC1,"inconclusive: 23.9 µM [inhibitor, single point]",
COc1ccc(C(=O)Nc2cc(S(=O)(=O)c3ccc(Cl)cc3)c(O)c(C)c2C)cc1,active: 8.49 µM,
Fc1ccc(-n2ncc3c(NCCC4=CCCCC4)ncnc32)cc1,"inconclusive: 8.49 µM [inhibitor, partial curve]",
Cc1ccccc1N=Cc1c(O)n(-c2nccs2)c(=O)c2ccccc12,"inconclusive: 23.9 µM [inhibitor, partial curve, poor fit]",
Nc1nnc(-c2ccc(Cl)c(Cl)c2)s1,"inconclusive: 37.9 µM [inhibitor, partial curve, poor fit]",
CN1C/C(=C/c2cccs2)C(=O)/C(=C\c2cccs2)C1,"inconclusive: 37.9 µM [inhibitor, single point]",
Cn1c(O)c(N=NC(=O)c2cc(-c3cccs3)nc3ccccc23)c2ccccc21,active: 2.69 µM,
Cc1cc(C)n2nc(-c3ccc(Br)cc3)cc2n1,active: 2.69 µM,
O=C(COC(=O)c1ccc(OC(F)F)cc1)NCCC1=CCCCC1,,inactive: 4.93%
CCN(CC)C(=O)CSc1nc(-c2ccc(C)cc2)nc2c1COC(C)(C)C2,"inconclusive: 26.9 µM [inhibitor, single point]",
O=C(CNC(=O)C(c1ccccc1)c1ccccc1)N/N=C\c1ccc2c(c1)OCO2,"inconclusive: 23.9 µM [inhibitor, partial curve, poor fit]",
CC(C)(C)c1ccc(OCC(=O)NNC(=O)Cc2cccs2)cc1,"inconclusive: 23.9 µM [inhibitor, partial curve, poor fit]",
CCSc1nnc(NC(=O)[C@@H](NC(=O)c2cc(OC)cc(OC)c2)C(C)C)s1,"inconclusive: 21.3 µM [inhibitor, partial curve, poor fit]",
Oc1ccc(-c2nnc(Nc3cccc(O)c3)c3ccccc23)cc1,"inconclusive: 37.9 µM [inhibitor, partial curve, poor fit]",
Cc1cc(C)cc(Nc2c(F)c(F)c(F)c(F)c2C(=O)O)c1,"inconclusive: 13.5 µM [inhibitor, partial curve]",
Brc1ccc(-c2nc3ccccc3s2)s1,active: 1.07 µM,
COc1cc2ccccc2cc1C(=O)Nc1cccc(-c2nc3cc(C)ccc3o2)c1C,,inactive: -6.62%
O=C1CC(C(=O)N2CCCc3ccccc32)CN1c1ccc(F)cc1 (stereo not drawn),"inconclusive: 26.9 µM [inhibitor, partial curve, poor fit]",

SMILES,Potency,"activity change, negative = inhibition"
O=C(Nc1cc(Cl)ccc1O)c1cc(-c2ccco2)on1,"inconclusive: 8.49 µM [inhibitor, partial curve]",
Cc1ccnc(NC(=O)CCNC(=O)c2ccc(Cl)cc2)c1,,inactive: 0.967%
O=C(Nc1nc2c(s1)CN(Cc1ccccc1)CC2)c1c(F)cccc1F,"inconclusive: 19 µM [inhibitor, single point]",
Cc1ccc(C2=NC(c3ccccc3)=Nc3ccc(Cl)cc3N2)cc1,active: 10.7 µM,
CC1C/C(=N\NC(=O)c2ccc(NS(=O)(=O)c3ccc(Br)cc3)cc2)CC(C)(C)C1 (stereo not drawn),"inconclusive: 37.9 µM [inhibitor, partial curve, poor fit]",
COc1ccc(-n2nc(C(=O)NCC(=O)N3CCN(C)CC3)c3ccccc3c2=O)cc1OC,"inconclusive: 30.1 µM [inhibitor, single point]",
CCCOC(=O)CSc1nnc(-c2ccccc2Cl)o1,"inconclusive: 19 µM [inhibitor, partial curve]",
Cn1c(SCc2c(F)cccc2Cl)nnc1-c1cnccn1,"inconclusive: 26.9 µM [inhibitor, single point]",
O=C(CN1CCN(S(=O)(=O)c2cccc(Cl)c2)CC1)N1CCCCC1,,inactive: 6.07%
COCCCNC(=O)C1CCN(C(=O)c2oc3cc4sc(N(C)C)nc4cc3c2C)CC1,"inconclusive: 26.9 µM [inhibitor, single point]",
Cc1cccc(NC(=O)c2ccc(N3CCOCC3)c([N+](=O)[O-])c2)n1,"inconclusive: 26.9 µM [inhibitor, single point]",
Cc1cc(C)c2c(=O)cc(C(=O)NCc3ccc(S(N)(=O)=O)cc3)oc2c1,,inactive: 0.79%
COCCCNC(=O)CSc1nc(-c2ccc(OC)c(OC)c2)[nH]c1-c1ccc(F)cc1,"inconclusive: 15.1 µM [inhibitor, partial curve]",
CCN(CC(=O)Nc1ccc2c(c1)OCCO2)S(=O)(=O)c1ccccc1,"inconclusive: 30.1 µM [inhibitor, partial curve, poor fit]",
CSc1ccc(/C=C2\C(=N)N3N=C(CC(=O)N4CCOCC4)SC3=NC2=O)cc1,"inconclusive: 26.9 µM [inhibitor, single point]",
CC1CCc2sc(-c3n[nH]c(=S)o3)cc2C1 (stereo not drawn),active: 6.75 µM,
COC(=O)c1nc(NC(=O)c2ccccc2)n[nH]1,"inconclusive: 26.9 µM [inhibitor, single point]",
O=C(N/C(=C\c1cccnc1)c1nc2ccccc2[nH]1)c1cccc(Br)c1,"inconclusive: 30.1 µM [inhibitor, partial curve, poor fit]",
COc1ccc(OCCC(=O)Nc2nccs2)cc1,"inconclusive: 33.8 µM [inhibitor, partial curve, poor fit]",
CCOC(=O)Cn1c(=O)oc2cc(S(=O)(=O)N3CCC(C(=O)OCC)CC3)ccc21,,inactive: -1.18%
O=C(CCCC(=O)N/N=C\c1ccccn1)N/N=C\c1ccccn1,,inactive: 5.21%
Oc1ccc(C2Nc3cccc4cccc(c34)N2)c(O)c1,"inconclusive: 37.9 µM [inhibitor, partial curve, poor fit]",
CC1(C)CC(=O)C2=C(C1)Oc1nc3ccccc3cc1C2C(C#N)C#N (stereo not drawn),"inconclusive: 21.3 µM [inhibitor, partial curve, poor fit]",

SMILES,Potency,"activity change, negative = inhibition"
O=S(=O)(Nc1ccc(F)cc1F)c1ccc(-n2cccn2)cc1,"inconclusive: 26.9 µM [inhibitor, partial curve, poor fit]",
COC(=O)c1[nH]c2ccc(F)cc2c1NS(=O)(=O)c1ccc(OC)cc1,"inconclusive: 21.3 µM [inhibitor, partial curve, poor fit]",
COc1ccc(-c2nnc3ccc(SCC(=O)Nc4nc5ccc(C)cc5s4)nn23)cc1OC,,inactive: 2.1%
Cc1ccc(/C=C/C(=O)N2CCN(Cc3ccccc3)CC2)o1,"inconclusive: 26.9 µM [inhibitor, partial curve, poor fit]",
COc1ccccc1NC(=O)Cn1c(CCC(=O)O)ccc1-c1ccccc1,"inconclusive: 21.3 µM [inhibitor, partial curve, poor fit]",
Cc1ccc(S(=O)(=O)Nc2ccc(Oc3cccnc3)nc2)cc1,,inactive: 2.45%
COc1ccccc1C(=O)NC(=Nc1nc2ccccc2o1)NC(=O)c1ccccc1OC,"inconclusive: 10.7 µM [inhibitor, partial curve, poor fit]",
O=C(CN1C(=O)CCc2cc(S(=O)(=O)N3CCOCC3)ccc21)NCc1ccc(Cl)cc1,,inactive: 4.07%
CN1/C(=C/C(=O)C2CCC2)Sc2ccccc21,active: 16.9 µM,
O=C(OCC#CCSc1nnc(-c2ccc(Br)cc2)o1)c1ccco1,"inconclusive: 37.9 µM [inhibitor, single point]",
CCc1ccc(C(=O)Cc2cc3cccc(OC)c3oc2=O)cc1,active: 15.1 µM,
Cc1cccc(N2CCN(C(=O)C3CCN(c4ncnc5c4nc4n5CCCCC4)CC3)CC2)c1C,"inconclusive: 15.1 µM [inhibitor, partial curve, poor fit]",
CCN(CC)c1ccc(-n2cc3c(=O)n(C)c(=O)n(C)c3c2)cc1,"inconclusive: 23.9 µM [inhibitor, partial curve]",
CCCOC(=O)Nc1nc2ccccc2o1,active: 13.5 µM,
COc1cccc(NC(=O)c2oc3ccccc3c2NC(=O)c2cc3ccccc3o2)c1,"inconclusive: 7.57 µM [inhibitor, full curve]",
Cc1nsc(Nc2ccccc2)c1C#N,,inactive: 4.22%
O=C(Nc1nnc(SCC(=O)N2CCCc3ccccc32)s1)c1ccccc1,active: 1.51 µM,
COC(=O)Cn1cc(C(=O)c2cccs2)c2ccccc21,"inconclusive: 21.3 µM [inhibitor, partial curve]",
O=C(Nc1cccc2ccccc12)/C(Cl)=C/c1ccccc1,active: 12 µM,
O=C(O)CCn1cc(/C=C2\NC(=S)N(c3ccccc3)C2=O)c(-c2ccc(Br)cc2)n1,"inconclusive: 30.1 µM [inhibitor, partial curve, poor fit]",
C#CCOc1ccc(/C=C2\SC(=S)N(Cc3cccnc3)C2=O)cc1,"inconclusive: 3.79 µM [inhibitor, partial curve, poor fit]",
Cc1ccc(N(C)C(=O)CCS(=O)(=O)c2cc3c(cc2Cl)NC(=O)CO3)cc1,inactive and active: 1.69 µM,
